B1: hTβRII (G4S)6-hFc (Fc fusion)
chain: GATIPPHVQKSDVEMEAQKDEIICPSCNRTAHPLRHINNDMIVTDNNGAVKFPQLCKFCDVRFSTCDNQKSCMSNCSITSICEKPQEVCVAVWRKNDENITLETVCHDPKLPYHDFILEDAASPKCIMKEKKKPGETFFMCSCSSDECNDNIIFSEEYNTSNPDTGGGGSGGGGSGGGGSGGGGSGGGGSGGG[… human IgG1 Fc and a few adjoining residues …]
B2: hTβRII (G4S)5-hFc (Fc fusion)
chain: GATIPPHVQKSDVEMEAQKDEIICPSCNRTAHPLRHINNDMIVTDNNGAVKFPQLCKFCDVRFSTCDNQKSCMSNCSITSICEKPQEVCVAVWRKNDENITLETVCHDPKLPYHDFILEDAASPKCIMKEKKKPGETFFMCSCSSDECNDNIIFSEEYNTSNPDTGGGGSGGGGSGGGGSGGGGSGGG[… human IgG1 Fc and a few adjoining residues …]
B3: hTβRII extended hinge-hFc (Fc fusion)
chain: GATIPPHVQKSDVEMEAQKDEIICPSCNRTAHPLRHINNDMIVTDNNGAVKFPQLCKFCDVRFSTCDNQKSCMSNCSITSICEKPQEVCVAVWRKNDENITLETVCHDPKLPYHDFILEDAASPKCIMKEKKKPGETFFMCSCSSDECNDNIIFSEEYNTSNPDTGGG[… human IgG1 Fc …]
B4: hTβRII-hFc (Fc fusion)
chain: GATIPPHVQKSDVEMEAQKDEIICPSCNRTAHPLRHINNDMIVTDNNGAVKFPQLCKFCDVRFSTCDNQKSCMSNCSITSICEKPQEVCVAVWRKNDENITLETVCHDPKLPYHDFILEDAASPKCIMKEKKKPGETFFMCSCSSDECNDNIIFSEEYNTSNPDTG[… human IgG1 Fc and a few adjoining residues …]
B5: hTβRII (G4S)3-hFc (Fc fusion)
chain: GATIPPHVQKSDVEMEAQKDEIICPSCNRTAHPLRHINNDMIVTDNNGAVKFPQLCKFCDVRFSTCDNQKSCMSNCSITSICEKPQEVCVAVWRKNDENITLETVCHDPKLPYHDFILEDAASPKCIMKEKKKPGETFFMCSCSSDECNDNIIFSEEYNTSNPDTGGGGSGGGGSGGG[… human IgG1 Fc and a few adjoining residues …]
B6: hTβRII (G4S)4-hFc (Fc fusion)
chain: GATIPPHVQKSDVEMEAQKDEIICPSCNRTAHPLRHINNDMIVTDNNGAVKFPQLCKFCDVRFSTCDNQKSCMSNCSITSICEKPQEVCVAVWRKNDENITLETVCHDPKLPYHDFILEDAASPKCIMKEKKKPGETFFMCSCSSDECNDNIIFSEEYNTSNPDTGGGGSGGGGSGGGGSGGG[… human IgG1 Fc and a few adjoining residues …]
B7: hTβRII (G4S)2-hFc (Fc fusion)
chain: GATIPPHVQKSDVEMEAQKDEIICPSCNRTAHPLRHINNDMIVTDNNGAVKFPQLCKFCDVRFSTCDNQKSCMSNCSITSICEKPQEVCVAVWRKNDENITLETVCHDPKLPYHDFILEDAASPKCIMKEKKKPGETFFMCSCSSDECNDNIIFSEEYNTSNPDTGGGGSGGG[… human IgG1 Fc and a few adjoining residues …]

The target of one assay is T1, Human TGFβ1 (human, UniProt P01137 fragment). Kind of assay: cell-based or functional assay.
Consider B1, for which the “IC50 (read off the curve); TGFβ1 (640 pg/mL)-induced CAGA luciferase reporter in A549 cells” value is approximately 2 ng/mL. Take B2: the “IC50 (read off the curve); TGFβ1 (640 pg/mL)-induced CAGA luciferase reporter in A549 cells” value was approximately 3 ng/mL.

The target in the next assay is T1, Human TGFβ1. The assay can be described thus: cell-based or functional assay. The source holds these as a separate data set.
T1 sequence (P01137 279-390 limits assumed): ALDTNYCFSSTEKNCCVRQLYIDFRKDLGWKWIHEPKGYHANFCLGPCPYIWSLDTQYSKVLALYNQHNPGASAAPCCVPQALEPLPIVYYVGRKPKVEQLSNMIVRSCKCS
Regarding B1, the “IC50; inhibition of TGFβ1-induced pGL3(CAGA)12 luciferase reporter in A549 cells” value (“IC50; inhibition” for short) was 0.02 nM. The same measure, in the same setting: the figure for B2 is 0.03 nM.

The target in another assay is T1, Human TGFβ1. The assay can be described thus: cell-based or functional assay. The source holds these as a separate data set.
With B3, the “IC50; inhibition” value turned out to be 5.67 nM. In the case of B4, the “IC50; inhibition” value came out at 7.69 nM. Regarding B5, the “IC50; inhibition” value came out at 0.22 nM. As for B6, the “IC50; inhibition” value stood at 0.07 nM. B7: the “IC50; inhibition” value was 1.12 nM.

The values are drawn from patent US20240226235A1 (ACCELERON PHARMA, published 2024).
